Experimental data reported in paper PMC13034042.
Results are given in words; binding and its absence hold for the method and conditions named. For some of these results: Binding seen in cells or lysates may run through a third protein. Some entries that bind do so weakly or less than the wild type. Sequences can lack the tags named with a protein. Values belong to the molecule of their own block, whether it stands above or below them.

Chains of the proteins cited; added tags and fusions are not shown. Lines headed by an entry give the natural chain unless they say otherwise; changes in a name come on top.
UniProt P0CX44: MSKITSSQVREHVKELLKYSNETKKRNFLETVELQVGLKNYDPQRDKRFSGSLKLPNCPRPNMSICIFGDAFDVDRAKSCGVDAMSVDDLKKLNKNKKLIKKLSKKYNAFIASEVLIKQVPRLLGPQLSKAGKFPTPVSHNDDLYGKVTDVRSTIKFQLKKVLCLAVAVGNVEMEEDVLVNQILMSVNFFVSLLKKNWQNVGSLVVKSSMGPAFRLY

Key:
[1] = target: T1, Bcl1.N366-(His)6 (S. cerevisiae) (UniProt P53962); assay: pull-down; two proteins co-expressed from pETDuet-1 in E. coli Rosetta(DE3); Ni-NTA affinity purification of the (His)6-tagged bait from the soluble extract (50 mM Tris-HCl pH 7.5, 200 mM NaCl, 1.5 mM MgCl2, 5% glycerol, 0.1% NP-40), imidazole eluate analysed by Coomassie staining and western blotting
T1 sequence: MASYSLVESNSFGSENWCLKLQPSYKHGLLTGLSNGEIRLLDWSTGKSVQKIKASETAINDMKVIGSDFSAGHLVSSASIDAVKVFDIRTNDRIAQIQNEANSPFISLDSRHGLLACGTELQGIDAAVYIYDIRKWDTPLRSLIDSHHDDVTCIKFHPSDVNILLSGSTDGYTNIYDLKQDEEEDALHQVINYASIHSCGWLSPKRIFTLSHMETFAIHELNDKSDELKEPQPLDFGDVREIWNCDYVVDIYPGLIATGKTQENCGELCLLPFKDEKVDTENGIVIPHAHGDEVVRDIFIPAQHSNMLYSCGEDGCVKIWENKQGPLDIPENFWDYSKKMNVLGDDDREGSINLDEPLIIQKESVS

[2] = target: T1, Bcl1.N366-(His)6 (S. cerevisiae); assay: pull-down; Rpl1b, Acl1-Flag and Bcl1.N366-(His)6 co-expressed in E. coli Rosetta(DE3); consecutive Ni-NTA and anti-FLAG affinity purification, FLAG peptide eluate analysed by Coomassie staining and western blotting
[3] = target: Rpl1 R45/K47/R48 to alanine variant, Y2H fusion (S. cerevisiae) (UniProt P0CX44); assay: two-hybrid; Y2H in reporter strain PJ69-4A; G4BD bait and G4AD prey from monocopy plasmids (ADH1 promoter); growth on SC-HLT (HIS3) and SC-ALT (ADE2) plates, 3 days at 30°C
[4] = target: Rpl1 K195/K196 to alanine variant, Y2H fusion (S. cerevisiae) (UniProt P0CX44); assay: as above
[5] = target: Rpl1b, full length, Y2H fusion (S. cerevisiae) (UniProt P0CX44); assay: as above
[6] = target: Rpl1 K195/K196 to glutamate variant, Y2H fusion (S. cerevisiae) (UniProt P0CX44); assay: as above
[7] = target: Rpl1 R45/K47/R48 to glutamate variant, Y2H fusion (S. cerevisiae) (UniProt P0CX44); assay: as above

binding [1]: binds | binding [2]: binds
Molecule: Rpl1b (untagged, E. coli) (from UniProt P0CX44 1-217)

B1: Bcl1, full length, Y2H fusion (protein, UniProt P53962 1-389)
chain: MASYSLVESNSFGSENWCLKLQPSYKHGLLTGLSNGEIRLLDWSTGKSVQKIKASETAINDMKVIGSDFSAGHLVSSASIDAVKVFDIRTNDRIAQIQNEANSPFISLDSRHGLLACGTELQGIDAAVYIYDIRKWDTPLRSLIDSHHDDVTCIKFHPSDVNILLSGSTDGYTNIYDLKQDEEEDALHQVINYASIHSCGWLSPKRIFTLSHMETFAIHELNDKSDELKEPQPLDFGDVREIWNCDYVVDIYPGLIATGKTQENCGELCLLPFKDEKVDTENGIVIPHAHGDEVVRDIFIPAQHSNMLYSCGEDGCVKIWENKQGPLDIPENFWDYSKKMNVLGDDDREGSINLDEPLIIQKESVSTRPRKEKHKKAKKHSMKSRFKPY
binding [3]: no binding | binding [4]: no binding | binding [5]: binds | binding [6]: no binding | binding [7]: no binding
